Measured values as given in the supplement of paper PMC8813932.
Counter-ions that a name gives are not always drawn. ± gives the standard deviation of the averaged measurements. The list shows a part of the results. Repeats are few or missing, and single values can be far off.

What was measured:
Assay in all cases: log2 surviving fraction relative to plate median (drug vs vehicle, or drug+dl922-947 vs dl922-947 alone); ovarian cancer lines: OVCAR4 is platinum-sensitive while Ov4Cis resists cisplatin and Ov4Carbo carboplatin; higher = more cell survival
Settings in all cases: compound concentration: 10 uM, 192 h
OVCAR4 = test system: OVCAR4
Ov4Carbo = test system: Ov4Carbo
Ov4Cis = test system: Ov4Cis
[1] = dl922-947 oncolytic adenovirus co-treatment: MOI 10
[2] = dl922-947 oncolytic adenovirus co-treatment: none

| SMILES | log2 surviving fraction (OVCAR4; [1]) | log2 surviving fraction (OVCAR4; [2]) | log2 surviving fraction (Ov4Carbo; [1]) | log2 surviving fraction (Ov4Carbo; [2]) | log2 surviving fraction (Ov4Cis; [1]) | log2 surviving fraction (Ov4Cis; [2]) |
| --- | --- | --- | --- | --- | --- | --- |
| CCn1nc(C(=O)O)c(=O)c2cc3c(cc21)OCO3 [Cinoxacin] | -0.0568 ± 0.15 | -0.0842 ± 1.1 | -1.07 | 0.139 | 0.955 | -0.685 |
| Nc1cc(C(Cl)=C(Cl)Cl)c(S(N)(=O)=O)cc1S(N)(=O)=O [Clorsulon] | 0.516 ± 0.75 | 0.555 ± 0.59 | 0.494 | 0.714 | -0.182 | 0.574 |
| CCCNC(C)C(=O)Nc1ccccc1C (stereo not drawn) [Prilocaine] | -0.273 ± 0.32 | -0.0713 ± 0.039 | 0.863 | 0.384 | 0.148 | -0.727 |
| CCN(CC)CCNC(=O)c1c(C)[nH]c(/C=C2\C(=O)Nc3ccc(F)cc32)c1C [Sunitinib Malate (Sutent)] | -1.22 ± 0.98 | -4.48 ± 0.76 | 0.949 | -2.02 | -2.87 | -7.12 |
| c1ccc2c(c1)CCCC2C1=NCCN1 (stereo not drawn) [tetrahydrozoline hydrochloride] | 0.14 ± 0.46 | 0.461 ± 0.34 | -0.343 | 0.595 | 0.22 | -4.14 |
| CC[C@H]1OC(=O)[C@H](C)[C@@H](O[C@H]2C[C@@](C)(OC)[C@@H](O)[C@H](C)O2)[C@H](C)[C@@H](O[C@@H]2O[C@H](C)C[C@H](N(C)C)[C@H]2O)[C@](C)(O)C[C@@H](C)C(=O)[C@H](C)[C@@H](O)[C@]1(C)O [Erythromycin (E-Mycin)] | 0.0414 ± 1.1 | -0.0157 ± 0.68 | 0.16 | -1.8 | 0.273 | -0.0206 |
| CN(C)CCN(Cc1ccccc1)c1ccccn1 [Tripelennamine HCl] | 0.477 ± 0.22 | 0.322 ± 0.35 | 0.708 | -0.107 | -0.204 | 0.427 |
| C[C@@H](c1ncncc1F)[C@](O)(Cn1cncn1)c1ccc(F)cc1F [Voriconazole] | 1.07 ± 0.0062 | 0.706 ± 0.62 | -0.252 | 0.461 | 0.0259 | 0.313 |
| CN1[C@@H]2CC[C@H]1C[C@@H](OC(=O)[C@H](CO)c1ccccc1)C2 [Hyoscyamine (Daturine)] | 0.104 ± 0.12 | 1.24 ± 0.17 | -0.855 | -0.659 | 0.74 | -0.824 |
| Nc1nc2ccc(OC(F)(F)F)cc2s1 [Riluzole (Rilutek)] | -0.414 ± 0.38 | -0.238 ± 0.81 | -0.258 | -1.66 | -0.504 | -0.655 |
| Nc1ccc(S(=O)(=O)Nc2ccccn2)cc1 [Sulfapyridine (Dagenan)] | 0.101 ± 0.57 | -0.152 ± 0.23 | 1.57 | 0.541 | 0.45 | -0.0422 |
| C/C(O)=C(\C#N)C(=O)Nc1ccc(C(F)(F)F)cc1 [Teriflunomide] | 0.149 ± 0.74 | -0.0276 ± 0.019 | 0.382 | 0.34 | -0.829 | 0.0421 |
| Nc1nc(NC2CC2)c2ncn([C@H]3C=C[C@@H](CO)C3)c2n1 [Abacavir sulfate] | 0.0147 ± 0.29 | -0.0835 ± 0.35 | 4.09 | 0.602 | -0.0817 | -0.429 |
| CC1(C)O[C@@H]2[C@@H](CO[C@@]3(COS(N)(=O)=O)OC(C)(C)O[C@@H]23)O1 [Topiramate] | -0.24 ± 0.39 | 0.407 ± 0.34 | -0.784 | -0.108 | -1.8 | 0.444 |
| c1ccc2c(c1)sc1ccccc12 [Dibenzothiophene] | 0.146 ± 0.056 | -0.252 ± 0.61 | -0.54 | -1.13 | 0.197 | -0.0717 |
| CC(C(=O)O)c1cccc(C(=O)c2ccccc2)c1 (stereo not drawn) [Ketoprofen (Actron)] | -0.281 ± 1.3 | 0.276 ± 1 | 1.62 | -1.06 | 0.511 | 1.28 |
| CCN(CC)C(=O)C1(c2ccccc2)CC1CN (stereo not drawn) [Milnacipran HCl] | 0.658 ± 0.72 | 0.0155 ± 0.13 | 0.392 | 0.275 | 0.595 | 0.967 |
| CN1C[C@@H]2C[C@H]1CN2c1cc2c(cc1F)c(=O)c(C(=O)O)cn2C1CC1 [Danofloxacin Mesylate] | -0.289 ± 0.21 | 0.96 ± 0.48 | -1.56 | -1.69 | 0.0401 | -1.6 |
